According to patent publication US6696425B2, “Method of treating dry eye disease with purinergic receptor agonists” (Inspire Pharmaceuticals, Inc., priority 1997, dated 2004):
Like-named read-outs stand apart in the source and are kept apart here.

Assays:
[1] = test system: rabbit eyes; assay: Rabbit tear secretion by Schirmer test, nucleotides and diadenosine polyphosphates; format: in vivo, New Zealand white rabbit; conditions: for tear secretion (Schirmer score) as percent saline control: single dose 10 μg/μl, 10 μl, strip 5 min, mean ± S.E.M.; for EC50: Oryctolagus cuniculus; for maximal effect on tear secretion: concentration-effect curves, percent of saline control, FIG. 4
Experimental: Tear secretion was measured according to the Schirmer test. Briefly, 10 μl of the test compound at the indicated concentrations were instilled via pipette in the eye. […] Control experiments were performed by applying 10 μl of saline solution (NaCl 0.9%). Tear secretion was measured as the length (mm) of the strip wetted by the tears.
Single-dose experiments were carried out by applying 10 μl of the corresponding nucleotide or dinucleotide at a concentration of 10 μg/μl. Dose-response analysis was performed by instilling doses ranging from 10^−10 to 10^−4 g/μl, always in a volume of 10 μl. Concentration-response curves were done by applying different doses in a non-cumulative fashion in one of the rabbit eyes, with the contralateral eye receiving the same volume of saline solution (control). Transformation of g/μl units into molar concentrations was performed by factoring in the corresponding molecular weight of each dinucleotide for each data point. The values presented are the means ±S.E.M. of 8 to 12 experiments performed in 36 different animals. Statistical significance between treated and non-treated animals was estimated by the Student's t-test.
In order to determine whether or not mononucleotides were able to modify rabbit tear secretion, single doses of ATP, UTP, ADP and UDP were instilled via pipette at 10 μg/μl (final volume 10 μl). […] Control experiments were performed by applying 10 μl of saline solution (NaCl 0.9%). Tear secretion was measured as the length (mm) of the strip wetted by the tears and values were expressed as percent saline control (***P<0.001; **P<0.05) compared to saline solution (Student's t-test).

[2] = biological target: human P2Y1 receptor (Homo sapiens, UniProt P47900); assay: Intracellular Ca2+ mobilization (FLIPR) in 1321N1 cells expressing P2Y1; format: cell-based
Experimental: Average Fluorescence Units (AFU) corresponding to peak height were captured on disk and exported for further analysis. Changes in fluorescence data corresponding to concentrations of intracellular Ca^2+ were normalized to the response of the cognate agonists (2MeSADP for P2Y1 receptor, ATP for P2Y2 receptor, UTP for P2Y4 receptor, UDP for P2Y6 receptor, and ATP for P2Y11 receptor).
(§1) Agonist potencies were calculated using a four-parameter logistic equation and the GraphPad software package (San Diego, Calif.). […] Three experiments using triplicate assays were conducted on separate days for each P2Y receptor subtype.

[3] = biological target: human P2Y2 receptor (Homo sapiens, UniProt P41231); assay: Intracellular Ca2+ mobilization (FLIPR) in 1321N1 cells expressing P2Y2; format: cell-based
Experimental: For intracellular Ca^2+ measurements, cells were seeded in 96-well black wall/clear bottom culture plates (#3904 Corning Inc., Corning, N.Y.), at a density of 35,000 cells per well and assays conducted 2 days later when the cells had reached confluence.
On the day of the assay, the growth medium in the culture plates was aspirated and replaced with 2.5 μM Fluo-3-AM in a final volume of 50 μl and incubated for one hour at 25° C. Then, the dye was replaced with assay buffer (10 mM KCl, 118 mM NaCl, 2.5 mM CaCl2, 1 mM MgCl2, 10 mM glucose, and 20 mM HEPES, pH 7.4), using a Columbus Plate Washer, (Tecan Inc., Research Triangle Park, N.C.). Intracellular Ca^2+ levels in response to P2Y receptor agonists was monitored as changes in fluorescence intensity using a Fluorescent Light Imaging Plate Reader (FLIPR) (Pendergast et al., 2001) from Molecular Devices (Sunnyvale, Calif.). Average Fluorescence Units (AFU) corresponding to peak height were captured on disk and exported for further analysis. Changes in fluorescence data corresponding to concentrations of intracellular Ca^2+ were normalized to the response of the cognate agonists (2MeSADP for P2Y1 receptor, ATP for P2Y2 receptor, UTP for P2Y4 receptor, UDP for P2Y6 receptor, and ATP for P2Y11 receptor).
as §1

[4] = biological target: avian P2Y1 receptor (Gallus gallus, UniProt P34996); conditions: Pintor et al. 1996; cited from earlier work
[5] = test system: rabbit eyes; assay: Schirmer scores in rabbits after a single instillation; format: in vivo, albino rabbit; conditions: for rank order of potency (highest to lowest): 10 minutes post-dosing; for rank order of potency: 30 minutes post-dosing; for Schirmer scores compared with saline or untreated controls: single 50 μL topical instillation of 50 mM solution
Experimental: This study was designed to investigate the effects of three synthetic P2Y2 receptor agonists, U2P4, dCp4U, and p-Br-phenyl-ethenoCp4U, on tear fluid secretion following a single instillation in albino rabbits.
Each of three cohorts of rabbits (10 animal/cohort) was given a single 50 μL instillation of isotonic and pH-neutral solution of 50 mM U2P4, dCp4U, and p-Br-phenyl-ethenoCp4U, in one eye per animal. The contralateral eye was untreated. A fourth control cohort was given isotonic saline in one eye and untreated in the contralateral eye. Tear secretion was measured using Schirmer strips placed into each eye for 15 seconds at baseline (3 hr before first instillation) and at 10 min, 0.5, 1, 2, and 3 hr post-instillation.

[6] = 1321 astrocytoma cells, n=3, read-out: EC50 for intracellular calcium mobilization, P2Y1 receptor
[7] = 1321 astrocytoma cells, n=3, read-out: pD2 for intracellular calcium mobilization, P2Y1 receptor (converted)
[8] = 1321 astrocytoma cells, n=3, read-out: EC50 for intracellular calcium mobilization, P2Y2 receptor
[9] = mobilization of intracellular Ca2+
[10] = concentration-effect curves 10^−10 to 10^−4 g/μl, n=8, read-out: pD2 for tear secretion (converted)
[11] = corresponding to the pD2 values, read-out: EC50 for tear secretion
[12] = 1321 astrocytoma cells, n=3, read-out: pD2 for intracellular calcium mobilization, P2Y2 receptor (converted)
[13] = post-dosing, 50 mM single instillation

UniProt P47900, sequence (P47900 whole entry): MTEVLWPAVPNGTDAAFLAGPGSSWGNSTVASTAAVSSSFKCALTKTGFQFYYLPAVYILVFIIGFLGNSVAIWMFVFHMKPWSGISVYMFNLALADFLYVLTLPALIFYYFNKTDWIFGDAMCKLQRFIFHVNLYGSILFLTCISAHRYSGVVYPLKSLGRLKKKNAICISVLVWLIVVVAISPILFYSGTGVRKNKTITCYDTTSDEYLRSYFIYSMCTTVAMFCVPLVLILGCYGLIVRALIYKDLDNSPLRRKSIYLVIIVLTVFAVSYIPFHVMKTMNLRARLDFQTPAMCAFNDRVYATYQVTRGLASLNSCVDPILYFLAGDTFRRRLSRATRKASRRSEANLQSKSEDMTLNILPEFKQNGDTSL
UniProt P41231, sequence (P41231 whole entry): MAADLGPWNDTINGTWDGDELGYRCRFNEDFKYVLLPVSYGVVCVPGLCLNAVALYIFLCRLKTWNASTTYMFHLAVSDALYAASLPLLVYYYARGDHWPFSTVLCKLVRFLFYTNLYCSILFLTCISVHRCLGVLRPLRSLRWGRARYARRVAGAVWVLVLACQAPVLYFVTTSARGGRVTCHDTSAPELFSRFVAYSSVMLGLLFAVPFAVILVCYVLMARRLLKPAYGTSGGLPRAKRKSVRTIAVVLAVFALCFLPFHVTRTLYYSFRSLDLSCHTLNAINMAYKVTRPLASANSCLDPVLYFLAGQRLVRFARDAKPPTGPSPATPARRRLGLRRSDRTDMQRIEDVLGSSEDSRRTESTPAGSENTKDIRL
UniProt P34996, sequence (P34996 whole entry): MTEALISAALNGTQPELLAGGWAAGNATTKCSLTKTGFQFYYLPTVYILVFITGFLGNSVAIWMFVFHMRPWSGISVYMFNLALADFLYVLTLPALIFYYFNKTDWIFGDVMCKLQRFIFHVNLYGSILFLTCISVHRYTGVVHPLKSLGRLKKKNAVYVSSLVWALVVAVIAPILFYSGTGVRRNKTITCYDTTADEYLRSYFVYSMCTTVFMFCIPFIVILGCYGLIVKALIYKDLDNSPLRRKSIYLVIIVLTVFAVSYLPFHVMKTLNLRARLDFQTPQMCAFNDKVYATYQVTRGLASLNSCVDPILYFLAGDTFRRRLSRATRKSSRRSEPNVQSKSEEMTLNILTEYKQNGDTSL

Row | Compound | tear secretion (Schirmer score) as percent saline control [1] | EC50 [2, 6] | EC50 [2, 7] | EC50 [3, 8] | EC50 [1, 10] | EC50 [1, 11] | maximal effect on tear secretion [1] | also measured
1 | Nc1ncnc2c1ncn2[C@@H]1O[C@H](COP(=O)(O)OP(=O)(O)O)[C@@H](O)[C@H]1O [ADP, reference compound] | 107±1% | – | – | – | – | – | – | –
2 | Nc1ncnc2c1ncn2[C@@H]1O[C@H](COP(=O)(O)OP(=O)(O)OP(=O)(O)O)[C@@H](O)[C@H]1O [ATP, adenosine 5′-triphosphate] | 131±6% | – | – | – | – | – | – | –
3 | Nc1ncnc2c1ncn2[C@@H]1O[C@H](COP(=O)(O)OP(=O)(O)OP(=O)(O)OP(=O)(O)OC[C@H]2O[C@@H](n3cnc4c(N)ncnc43)[C@H](O)[C@@H]2O)[C@@H](O)[C@H]1O [Ap4A, P^1, P^4-di(adenosine 5′-)tetraphospate] | 162±3% | 160 nM | 170 nM | 93 nM | 2750 nM | 2760 nM | 162±2.4% | activation of P2Y2 receptor [3, 9]: activated by Ap4A at a similar low concentration; EC50 values at avian P2Y1 receptor [4]: nM range
4 | Nc1ncnc2c1ncn2C1OC(COP(=O)(O)OP(=O)(O)OP(=O)(O)OP(=O)(O)OP(=O)(O)OCC2OC(n3cnc4c(N)ncnc43)C(O)C2O)C(O)C1O (stereo not drawn) [Ap5A, P^1, P^5di(adenosine-5′-)pentaphosphate] | 126±6% | 1660 nM | 1700 nM | 2640 nM | 1780 nM | 1770 nM | 125±7% | EC50 [3, 12]: 2690 nM
5 | Nc1ncnc2c1ncn2C1OC(COP(=O)(O)OP(=O)(O)OP(=O)(O)OP(=O)(O)OP(=O)(O)OP(=O)(O)OCC2OC(n3cnc4c(N)ncnc43)C(O)C2O)C(O)C1O (stereo not drawn) [Ap6A, P^1, P^6-di(adenosine-5′-)hexaphosphate] | 125±15% | 1770 nM | 1780 nM | 5180 nM | 3160 nM | 3160 nM | 125±7% | EC50 [3, 12]: 5250 nM
6 | O=c1ccn([C@@H]2O[C@H](COP(=O)(O)OP(=O)(O)O)[C@@H](O)[C@H]2O)c(=O)[nH]1 [UDP, reference compound] | 105±2% | – | – | – | – | – | – | –
7 | O=c1ccn([C@@H]2O[C@H](COP(=O)(O)OP(=O)(O)OP(=O)(O)O)[C@@H](O)[C@H]2O)c(=O)[nH]1 [UTP, uridine 5′-triphosphate] | 160±8% | – | – | – | – | – | – | –
8 | Nc1ccn([C@H]2C[C@H](O)[C@@H](COP(=O)(O)OP(=O)(O)OP(=O)(O)OP(=O)(O)OC[C@H]3O[C@@H](n4ccc(=O)[nH]c4=O)[C@H](O)[C@@H]3O)O2)c(=O)n1 [dCp4U, P^1-(deoxycytidine 5′-) P^4-(uridine 5′)-tetraphosphate] | – | – | – | – | – | – | – | rank order of potency (highest to lowest) ([5]; 50 mM single instillation): U2P4≈p-Br-Phenyl-ethenoCp4U>dCp4U; rank order of potency ([5]; 50 mM single instillation): dCp4U≈U2P4>p-Br-Phenyl-ethenoCp4U; time by which tear secretion returned to pretreatment levels [5, 13]: ≤ 1 h; Schirmer scores compared with saline or untreated controls [5]: significantly increased Schrimer scores
9 | P^1-(bromophenyletheneocytidine 5′-) P^4-(uridine 5′-)tetraphosphate [p-Br-phenyl-ethenoCp4U] | – | – | – | – | – | – | – | rank order of potency (highest to lowest) ([5]; 50 mM single instillation): U2P4≈p-Br-Phenyl-ethenoCp4U>dCp4U; rank order of potency ([5]; 50 mM single instillation): dCp4U≈U2P4>p-Br-Phenyl-ethenoCp4U; Schirmer scores, difference among treatment groups ([5]; 1 hour post-treatment): significantly higher Schirmer scores than dCp4U; time for which tear secretion remained slightly elevated [5, 13]: up to 2 hours; Schirmer scores compared with saline or untreated controls [5]: significantly increased Schrimer scores
10 | diadenosine triphosphate [Ap3A] | 89±7% | 9 nM | – | 19600 nM | – | – | – | pD2 for intracellular calcium mobilization, P2Y1 receptor ([2]; 1321 astrocytoma cells, n=3): 8.05; activation of P2Y1 receptor [2, 9]: fully activated by submicromolar concentrations; pD2 for intracellular calcium mobilization, P2Y2 receptor ([3]; 1321 astrocytoma cells, n=3): 4.70; change on tear secretion ([1]; even at the highest concentrations assayed, n=8): failed to produce any change on tear secretion
